In PubChem BioAssay AID485344 (National Center for Advancing Translational Sciences (NCATS), 2010):
The campaign covered roughly 340,000 compounds. About 6,900 (2%) were called active. Rule as the data show it: active = inhibition above about 30%; inactive = below that, where a call was filed. The entries are a selection whose mix differs from that of the whole data set. Where no call is shown, the source filed none.

What follows are molecules tested against D(2) dopamine receptor (Homo sapiens) (UniProt P14416) (assay: HTS Assay for Allosteric Antagonists of the Human D2 Dopamine Receptor: Primary Screen for Antagonists). Conditions: HEK293 TREx D2 cells, calcium flux, dopamine EC80; at 10 µM; stronger effect = higher value.
Outline: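 In this primary screen, negative modulation is detected by tracking calcium flux after an EC80 dopamine challenge in inducible HEK293 T-REx D2 cells preexposed to test compound for 180 s.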
Also: 0% is about no effect.

UniProt P14416, sequence (P14416 whole entry, looked up): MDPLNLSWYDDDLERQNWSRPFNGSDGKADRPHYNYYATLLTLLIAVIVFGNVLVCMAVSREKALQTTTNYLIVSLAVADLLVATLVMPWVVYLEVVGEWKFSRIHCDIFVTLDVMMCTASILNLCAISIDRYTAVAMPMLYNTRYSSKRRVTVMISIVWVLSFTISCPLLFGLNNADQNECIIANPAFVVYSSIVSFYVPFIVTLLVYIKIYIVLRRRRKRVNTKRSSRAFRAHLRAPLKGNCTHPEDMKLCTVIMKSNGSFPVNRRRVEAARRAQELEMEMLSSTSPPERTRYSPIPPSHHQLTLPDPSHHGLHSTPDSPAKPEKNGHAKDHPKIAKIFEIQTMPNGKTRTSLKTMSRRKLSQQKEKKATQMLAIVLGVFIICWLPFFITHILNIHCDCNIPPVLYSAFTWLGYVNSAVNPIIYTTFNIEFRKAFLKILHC

Row | Structure (SMILES) | inhibition
1 | COc1cccc(Cn2c(CNC(=O)CCc3ccccc3)nc3cccnc32)c1 | -7.75%
2 | Cc1ccc(NC(=O)C(=O)NCCc2sc(-c3ccc(Cl)cc3)nc2C)cc1C | 16%
3 | Cc1ccc(S(=O)(=O)NCCc2csc(-c3ccc(Cl)cc3)n2)cc1 | 16%
4 | Cc1c(Cl)cccc1NC(=O)CCS(=O)(=O)c1ccc2c(c1)oc(=O)n2C | 5.34%
5 | COc1cccc(CNC(=O)CCn2nc(C)c3c(C)n(-c4ccccc4)nc3c2=O)c1 | 3.55%
6 | Cc1nc2ccccc2n2c(-c3ccccc3)c3c(=O)n(C)c(=O)n(C)c3c12 | -15.1%
7 | CCOC(=O)Cn1c(=O)n(C2CCCCC2)c2nc(-c3ccc(CC)cc3)nc(C(N)=O)c21 | 0.716%
8 | Cc1cc(C)cc(NC(=O)Cn2c(=O)n(-c3cc(C)cc(C)c3)c(=O)c3oc4ccccc4c32)c1 | 13.8%
9 | Cn1nc(C(=O)NCc2cccc(Cl)c2)c2c1-c1ccccc1S(=O)(=O)C2 | 18.5%
10 | C=CCC1c2cccc(C(=O)O)c2C(=O)N1c1cccc(C)c1 (stereo not given) | active: 32.2%
11 | Cc1ccccc1N(C)S(=O)(=O)c1nnc(NC(=O)c2ccccc2F)s1 | 5.66%
12 | COc1cc(CN2CCc3nc(N4CCN(c5ncccn5)CC4)ncc3C2)cc(OC)c1OC | 0.816%
13 | Cn1ncc2c(NCc3ccccc3Cl)nc(NCCO)nc21 | 14%
14 | COc1ccc2c(c1)c1c(c(=O)n(-c3ccccc3)c(=O)n1CC(=O)NCCC1=CCCCC1)n2C | -1.35%
15 | O=C(Nc1ccc(-n2nncc2-c2ccccc2)cc1)c1cccc(F)c1 | 20.8%
16 | CCOc1ccc(CNC(=O)C2CCN(S(=O)(=O)c3cn(C)cn3)CC2)cc1 | -8.03%
17 | O=C(CN1C(=O)CCn2nc(-c3ccccc3)cc21)NCc1ccc(F)cc1 | -7.8%
18 | N=c1c(C(=O)NCC2CCCO2)cc2c(=O)n3ccccc3nc2n1CCCO (stereo not given) | 9.69%
19 | CCOc1cc(C(=O)NCCc2csc3nc(-c4ccccc4F)nn23)cc(OCC)c1OCC | -11%
20 | COc1ccc(F)cc1S(=O)(=O)NCC(c1ccco1)S(=O)(=O)c1ccc(F)cc1 (stereo not given) | -12.4%

Row | Structure (SMILES) | inhibition
21 | COc1ccc(Cn2c(C(=O)O)c(CNCCc3ccco3)c3ccc(C)cc32)cc1 | 6.63%
22 | Cc1cc(C(F)F)n2nc(C(=O)Nc3cccc(Cl)c3C)nc2n1 | 8.16%
23 | Cc1ccccc1OCC(=O)Nc1ccccc1C(=O)OCc1cc(=O)n2ccsc2n1 | -1.56%
24 | CC(C)(CNC(=O)c1ccc(-c2ccccc2Cl)o1)N1CCOCC1 | active: 39.8%
25 | Cc1nn(CCCC(=O)NCCc2ccc(Cl)cc2)c(=O)c2c1sc1ccccc12 | -4.73%
26 | Cc1ccc(NC(=O)CCCn2c(=O)c3cccn3c3ccccc32)c(C)c1 | 24.6%
27 | CCOC(=O)c1cnc2c(ccc3ccccc32)c1Nc1cccc(C(F)(F)F)c1 | -7.75%
28 | CCCC(=O)Nc1ccc2oc(-c3cccnc3)nc2c1 | active: 31.9%
29 | Cc1ccc(C(=O)NCC(c2ccc3c(c2)OCO3)N2CCN(C)CC2)cc1C (stereo not given) | 8.19%
30 | CCc1noc(-c2ccc(NCc3ccccc3)c([N+](=O)[O-])c2)n1 | 11.2%
31 | COc1ccccc1N1CCN(C(=O)c2cn(C)c3ccc(S(=O)(=O)N(C)C4CCCCC4)cc3c2=O)CC1 | 7.36%
32 | CCOc1ccc(NC(=O)c2cnn(-c3ccc(C)c(C)c3)c2C2CCN(C(=O)OC(C)(C)C)CC2)cc1 | 25.5%
33 | CC1=C(C(=O)Nc2ccccc2)C(c2ccc(C(=O)O)cc2)n2ncnc2N1 (stereo not given) | 1.09%
34 | CCOc1ccc(Nc2nc3c(S(=O)(=O)c4cccc(Cl)c4)nnn3c3ccsc23)cc1 | 5.4%
35 | CCc1ccc(OCC(=O)N(Cc2ccco2)Cc2ccccc2Cl)cc1 | -8.67%
36 | CC(C)c1ccc(NC(=O)CSC2=Nc3ccccc3C3=NC(CC(=O)NC4CCCCC4)C(=O)N23)cc1 (stereo not given) | 14.3%
37 | CC(=O)N1N=C(c2cccnc2)OC1c1ccc(C(C)C)cc1 (stereo not given) | active: 55.4%
38 | COc1ccc(-c2nc3ccccc3n3c(-c4ccccc4)c4c(=O)n(C)c(=O)n(C)c4c23)cc1 | -5.92%
39 | COc1ccc2c(Sc3ccc(Cl)cc3)c(C(=O)N3CCCCC3)[nH]c2c1 | 26.3%
40 | Cc1ccc(C(=O)NN2C(=O)c3ccc(S(=O)(=O)c4ccc(C(=O)O)cc4)cc3C2=O)cc1 | active: 62.6%

Row | Structure (SMILES) | inhibition
41 | O=C(CSc1oc(-c2ccco2)nc1S(=O)(=O)c1ccc(Cl)cc1)Nc1ccc(F)cc1 | 9.69%
42 | OC1(c2ccc(F)cc2)CCN(Cc2cccnc2)CC1 | active: 33.8%
43 | COc1ccc(-n2nc(C(=O)Nc3cccc(Cl)c3)c3c4ccccc4n(C)c3c2=O)cc1Cl | -1.08%
44 | O=C(Nc1ccc(Br)cc1)c1cccc(S(=O)(=O)N2CCc3ccccc32)c1 | 18.6%
45 | CC(C)(C)c1ccc(-c2nnc(-c3ccccc3NC(=O)c3ccc(F)cc3F)o2)cc1 | 6.38%
46 | Cc1cc(NC(=S)N(CCN2CCCCC2)Cc2ccco2)ccc1Cl | active: 35.3%
47 | Cc1cc(C)cc(N(CC(=O)N2CCCCCC2)S(C)(=O)=O)c1 | active: 34.2%
48 | COc1ccc(N2CCN(CCCNC(=O)c3ccc4nc(N5CCCCC5)sc4c3)CC2)cc1 | 10.2%
49 | Cc1ccc(/C=C/c2onc(C)c2S(=O)(=O)N2CCC(C(=O)N(CCC(C)C)Cc3ccco3)CC2)cc1 | -21.7%
50 | CCc1cccc(NC(=O)CCNS(=O)(=O)c2ccc3c(c2)CCN3C(C)=O)c1 | -1.13%
51 | CCOC(=O)CSc1nc2cc3c(cc2c(=O)n1CCCCCC(=O)NCc1ccc(OC)cc1)OCO3 | -27.7%
52 | CN(C)c1ccc(CNC(=O)c2ccc3nc(CCc4ccccc4)oc3c2)cc1 | 7.88%
53 | Cc1ccc(N2C(=O)CSC23C(=O)N(CC(=O)Nc2ccccc2F)c2ccccc23)cc1C (stereo not given) | -19.1%
54 | Cc1ccc(CNC(=O)c2ccc(CS(=O)(=O)c3ccccc3C)o2)cc1 | -1.16%
55 | C=CCc1ccccc1OCCNCc1ccccc1 | active: 69%
56 | CCOc1ccc(NC(=O)c2oc3ccccc3c2NC(=O)c2cc3ccccc3o2)cc1 | 16.2%
57 | COc1ccccc1NC(=O)Cn1c(=O)n(-c2ccc(C)cc2)c(=O)c2c1cnn2C | -3.07%
58 | CCC(C)c1ccc(OCC(=O)Nc2ccc(-c3nc4ncccc4o3)cc2)cc1 (stereo not given) | 1.51%
59 | CC(OC(=O)COc1ccc(C#N)cc1)C(=O)c1ccccc1 (stereo not given) | active: 31.9%
60 | CCOC(=O)c1ccc(NC(=O)c2c(NCc3cccc(OC)c3OC)sc3c2CCC3)cc1 | -1.96%
